Test results taken from PubChem BioAssay AID588855 (National Center for Advancing Translational Sciences (NCATS), 2011).
The campaign covered roughly 410,000 compounds. About 5,000 (1.2%) were called active. Inconclusive results, whose numbers are uncertain, are shown with a selection of clear calls. Calls come from the whole dose curve; as a rule, active = well fitted inhibition curve with a large enough effect; inconclusive = small, poorly fitted or top-dose-only effect; inactive = no such curve, though single readings can be large or run the other way. Where the call is inconclusive, the potency comes from a doubtful curve fit.

assay: qHTS for Inhibitors of TGF-b; settings: HepG2 CAGA-GFP TGF-b/SMAD3 reporter, GFP fluorescence, 18 h, TGF-beta stimulated, 500 pg/mL final; series mostly up to 46.1 µM; activity, negative = inhibition: at the top concentration; note: nearly all actives have a fitted effect of over 65% in size
Procedure, shortened: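 Per well, imaged GFP fluorescence of HEPG2 CAGA-GFP cells gives the signal; cells get compound, then TGF-beta (500 pg/mL final), 18 h at 37 degrees C; %Activity versus -TGF-beta and +DMSO controls.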
% is set by controls: 0 for no effect and ±100 for the full control effect; potency is the fitted concentration of half-maximal effect; tags give direction and shape of the fitted curve.

Question: With Cc1ccc(NC(=O)C(C)[n+]2ccccc2)cc1[N+](=O)[O-] (configuration not stated) as the molecule, how does the Potency read?
Answer: inconclusive: 35.5 µM [inhibitor, single point]

Question: With Cc1cc(NC(=S)N(CCN2CCOCC2)Cc2ccccc2F)ccc1Cl as the molecule, how does the Potency read?
Answer: inconclusive: 31.6 µM [inhibitor, single point]

Question: Which “activity, negative = inhibition” value does the source give for COC(=O)Cn1c(CN2CCc3ccccc3C2)nc2c1c(=O)n(C)c(=O)n2C here?
Answer: inactive: -7.83%

Question: For O=C(NCC1CCCO1)c1ccc2c(c1)N(Cc1ccc(Cl)cc1)CCS2 (configuration not stated), which “activity, negative = inhibition” value is on record?
Answer: inactive: -17.5%

Question: Which Potency does the source give for Cc1cc(C(=O)CSc2nnc(-c3cccnc3)n2-c2ccccc2F)c(C)n1CC1CCCO1 (configuration not stated) here?
Answer: inconclusive: 0.112 µM [inhibitor, full curve, poor fit]

Question: For OC(CC1CC12c1ccccc1-c1ncccc12)(c1ccccc1)c1ccccc1 (configuration not stated), which Potency is on record?
Answer: inconclusive: 35.5 µM [inhibitor, single point]

Question: With Cc1cccc(NC(=O)CSc2nc3ccc(NC(=O)COc4ccccc4F)cc3s2)c1 as the molecule, how does the Potency read?
Answer: inconclusive: 11.2 µM [inhibitor, partial curve, poor fit]

Question: For Cc1ccc(S(=O)(=O)CCC(=O)OC(C)C(=O)N2CCc3ccccc32)cc1 (configuration not stated), which Potency is on record?
Answer: inconclusive: 35.5 µM [inhibitor, partial curve, poor fit]

Question: For CCOc1ccccc1C(=O)NC(C(=O)OCn1nnc2ccccc2c1=O)C(C)C (configuration not stated), which “activity, negative = inhibition” value is on record?
Answer: inactive: 13.4%

Question: Which Potency does the source give for COc1ccc(CCN2CC(C(=O)Nc3ccc4c(c3)OCO4)CC2=O)cc1OC (configuration not stated) here?
Answer: inconclusive: 35.5 µM [inhibitor, single point]

Question: Which Potency does the source give for Fc1ccccc1N1CCN(c2ncc3c(n2)CCN(Cc2cc(Br)cs2)C3)CC1 here?
Answer: inconclusive: 22.4 µM [inhibitor, single point]

Question: Which Potency does the source give for O=C(O)c1cc(NN=Nc2ccc(Br)cc2)cc([N+](=O)[O-])c1 here?
Answer: inconclusive: 3.16 µM [inhibitor, single point]

Question: With COc1ccc(CN2CCNC(=O)C2CC(=O)NC2CC(C)(C)CC(C)(C)C2)cc1OC (configuration not stated) as the molecule, how does the “activity, negative = inhibition” value read?
Answer: inactive: -2.26%

Question: With COc1cccc2cc(C(=O)N3CC(C)OC(C)C3)c(=O)oc12 (configuration not stated) as the molecule, how does the Potency read?
Answer: inconclusive: 35.5 µM [inhibitor, single point]

Question: Which Potency does the source give for C=C(CN(C)C)C(=O)c1ccc(C)cc1C here?
Answer: inconclusive: 11.2 µM [inhibitor, partial curve, poor fit]

Question: For Cc1c(N2C(=O)/C(=C/C3CC=CCC3)SC2=S)c(=O)n(-c2ccccc2)n1C (configuration not stated), which Potency is on record?
Answer: inconclusive: 35.5 µM [inhibitor, single point]

Question: With C=CC[n+]1ccc(/C=C2\C=Cc3cc(C)ccc3N2CC)c2ccccc21 as the molecule, how does the Potency read?
Answer: active: 2.82 µM

Question: Which Potency does the source give for CC(NC(=S)NC(=O)c1ccccc1Br)c1ccccc1 (configuration not stated) here?
Answer: inconclusive: 35.5 µM [inhibitor, single point]

Question: With CCOC(=O)C1Nc2ccc(C(F)(F)F)cc2C2C=CCC12 (configuration not stated) as the molecule, how does the Potency read?
Answer: inconclusive: 35.5 µM [inhibitor, partial curve, poor fit]

Question: Which “activity, negative = inhibition” value does the source give for Cc1cccc(N2CCN(C(c3ccccc3)c3nnc(-c4ccccc4Cl)o3)CC2)c1C (configuration not stated) here?
Answer: inactive: -6.46%

Question: Which Potency does the source give for Cc1sc2c(c1C)c(=O)n(-c1cccc(C(F)(F)F)c1)c(=O)n2CC(=O)NCc1ccco1 here?
Answer: inconclusive: 6.31 µM [inhibitor, single point]

Question: With CCSc1nn(CC(=O)Nc2ccc(C(=O)OC)cc2)c(N)c1S(=O)(=O)c1ccc(C)cc1 as the molecule, how does the Potency read?
Answer: inconclusive: 22.4 µM [inhibitor, single point]

Question: For Cc1[nH]c2ccccc2c1/C=C/c1ccnc2ccccc12, which Potency is on record?
Answer: active: 12.6 µM

Question: Which “activity, negative = inhibition” value does the source give for COc1cccc(-n2nnc(-c3nc(-c4ccccc4F)no3)c2C)c1 here?
Answer: inactive: 1.64%

Question: Which “activity, negative = inhibition” value does the source give for O=C(NC1(Cc2ccccc2)CCN(CCc2cccs2)C1=O)c1ccccc1 (configuration not stated) here?
Answer: inactive: 4.94%

Question: With O=C1C(=O)c2ccc(-c3ccccc3)cc2-c2ccccc21 as the molecule, how does the Potency read?
Answer: inconclusive: 3.98 µM [inhibitor, full curve, poor fit]

Question: With COc1ccc(-c2nc3c(c(SCC(=O)N4CCCCC4)n2)Cc2c(CO)cnc(C)c2O3)cc1 as the molecule, how does the Potency read?
Answer: inconclusive: 12.6 µM [inhibitor, single point]

Question: For CC(C)c1ccc(NC2CCCN(C(=O)CC3CCCC3)C2)cc1 (configuration not stated), which Potency is on record?
Answer: inconclusive: 12.6 µM [inhibitor, partial curve]

Question: For CC(C)(C)[C@H]1C=C(C(=O)NCc2nc3ccccc3[nH]2)O[C@@H](OCc2ccc(CO)cc2)C1, which Potency is on record?
Answer: inconclusive: 15.8 µM [inhibitor, single point]

Question: For Cc1cc(C)c(S(=O)(=O)Nc2cccc3cccnc23)c(C)c1, which Potency is on record?
Answer: inconclusive: 22.4 µM [inhibitor, single point]

Question: Which “activity, negative = inhibition” value does the source give for O=C(Nc1cccc(F)c1F)C1CCN(c2ncccn2)CC1 here?
Answer: inactive: 3%

Question: With O=C(Cc1sc(-c2ccccc2)nc1-c1ccccc1)Nc1ccc(Cl)cc1 as the molecule, how does the Potency read?
Answer: inconclusive: 10 µM [inhibitor, partial curve]

Question: For Cc1ccc(N2CCN(S(=O)(=O)c3ccc4[nH]c5c(c4c3)CCCCC5)CC2)c(C)c1, which Potency is on record?
Answer: inconclusive: 12.6 µM [inhibitor, single point]

Question: Which “activity, negative = inhibition” value does the source give for CCOc1cccc(-c2nnc3sc(-c4cc(OC)c(OC)c(OC)c4)nn23)c1 here?
Answer: inactive: -2.77%

Question: With CCOc1cc(CNn2cn[nH]c2=S)cc(Cl)c1OCc1ccccc1F as the molecule, how does the Potency read?
Answer: inconclusive: 35.5 µM [inhibitor, single point]

Question: For COC(=O)c1ccc2nc(-c3ccc(OC)c(OC)c3)c(CC3CCCCC3)n2c1, which Potency is on record?
Answer: inconclusive: 35.5 µM [inhibitor, single point]

Question: For CCCC(=O)Nc1ccc(N2CCOCC2)cc1, which “activity, negative = inhibition” value is on record?
Answer: inactive: -0.228%

Question: Which Potency does the source give for Cc1ccc2cccc(Oc3ncnc4scc(-c5ccc(Cl)cc5)c34)c2n1 here?
Answer: inconclusive: 35.5 µM [inhibitor, single point]

Question: For O=C(c1ccccc1)N1CCN(C2CC(=O)N(CCc3ccccc3)C2=O)CC1 (configuration not stated), which Potency is on record?
Answer: inconclusive: 15.8 µM [inhibitor, single point]

Question: Which Potency does the source give for Cc1ccc(Oc2c(C(N)=O)cc([N+](=O)[O-])cc2[N+](=O)[O-])cc1 here?
Answer: inconclusive: 3.98 µM [inhibitor, full curve, poor fit]

Question: For CC(=O)Nc1nc2ccccc2n1Cc1ccc(Cl)cc1, which Potency is on record?
Answer: inconclusive: 10 µM [inhibitor, single point]

Question: Which Potency does the source give for CCCCS(=O)(=O)c1nc(-c2ccc(Br)cc2)cc(-c2ccccc2)c1C#N here?
Answer: inconclusive: 35.5 µM [inhibitor, single point]
